Assay results from the supplement of paper PMC12217912.
The list shows a part of the results. Sequences were assembled here from the parent chain. Inactive controls read about 0.05.

B1: TEV protease; numbered along this chain (parent)
chain: MGESLFKGPRDYNPISSSICHLTNESDGHTTSLYGIGFGPFIITNKHLFRRNNGTLVVQSLHGVFKVKDTTTLQQHLVDGRDMIIIRMPKDFPPFPQKLKFREPQREERICLVTTNFQTKSMSSMVSDTSCTFPSGDGIFWKHWIQTKDGQCGSPLVSTRDGFIVGIHSASNFTNTNNYFTSVPKNFMELLTNQEAQQWVSGWRLNADSVLWGGHKVFMVKPEEPFQPVKEATQL

Variants of: B1
Assay: raw area under fraction-flipped curve 0-4 h after induction (AUC4h, not background-subtracted), DNA-recorder readout of cleavage of the substrate (dimensionless); higher = more cleavage of the substrate by the protease variant
Details: temperature: 34 °C; time window: 0-4 h after rhamnose induction
Method: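 In vivo DNA recorder in E. coli TOP10(DE3) ΔrhaA at 34 °C. Each TEVp single-site mutant (parent TEVp 0) is paired with a single-site variant of the 7-mer TEVs (canonical ENLYFQ|S). The substrate sits between flexible linkers in a Bxb1-sfGFP-TEVs-SsrA fusion, so cleavage stabilises Bxb1 and speeds flipping of a recombination array, read by NGS. The value is the raw area under the fraction-flipped curve over 0-4 h after rhamnose induction (AUC4h), with ≥20 reads per time point. It is not background-subtracted; inactive controls average about 0.047.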
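Further: Bxb1 expression induced with 0.2% (w/v) L-rhamnose at OD600 near 0.5, cultures sampled hourly, flipped fraction per protease–substrate barcode pair counted by paired-end Illumina sequencing.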

Row | Variant | area with substrate ENLYFAS | area with substrate ENLYFCS | area with substrate ENLYFDS | area with substrate ENLYFES | area with substrate ENLYFFS | area with substrate ENLYFHS | area with substrate ENLYFIS | area with substrate ENLYFKS | area with substrate ENLYFLS | area with substrate ENLYFMS | area with substrate ENLYFNS | area with substrate ENLYFPS | area with substrate ENLYFRS | area with substrate ENLYFSS | area with substrate ENLYFTS | area with substrate ENLYFVS | area with substrate ENLYFWS | area with substrate ENLYFYS | area with substrate ENLYFGS
1 | S135R | 0.0551 | 0.0585 | 0.0466 | 0.0605 | 0.0673 | 0.0665 | 0.0583 | 0.0571 | 0.0596 | 0.0613 | 0.0593 | 0.0673 | 0.0571 | 0.061 | 0.0648 | 0.0548 | 0.0581 | 0.0508 | 
2 | K142L | 0.0643 | 0.0613 |  | 0.0578 | 0.0769 | 0.0481 | 0.0697 |  | 0.0598 | 0.0806 | 0.079 | 0.0627 | 0.0792 | 0.0572 | 0.0566 |  | 0.0546 | 0.0614 | 
3 | W141I | 0.0676 |  |  | 0.0526 | 0.054 | 0.0634 | 0.0617 | 0.0576 |  | 0.0603 | 0.0595 | 0.0655 |  |  |  |  |  | 0.0343 | 
4 | W141A | 0.0521 |  |  | 0.0608 | 0.0621 |  | 0.0593 | 0.0494 |  | 0.0374 | 0.0597 | 0.052 | 0.0375 | 0.0621 |  | 0.0543 |  | 0.0476 | 
5 | W141P | 0.0597 | 0.0577 | 0.0601 | 0.0514 |  |  | 0.0571 | 0.0558 | 0.0514 | 0.0566 |  | 0.0522 | 0.0632 | 0.0052 | 0.0528 | 0.0615 |  | 0.0625 | 0.0442
6 | V183H | 0.037 | 0.0591 | 0.049 | 0.0536 | 0.0578 | 0.0591 | 0.0544 | 0.0635 | 0.0589 | 0.0509 | 0.0551 | 0.0505 | 0.0468 | 0.0191 | 0.0439 | 0.0556 | 0.0457 | 0.0535 | 0.0503
7 | N177L | 0.0604 | 0.0545 | 0.0584 | 0.0776 | 0.0757 |  | 0.0551 |  |  | 0.0613 | 0.0922 | 0.0436 | 0.0515 | 0.0556 |  |  |  |  | 
8 | N177S | 0.054 | 0.0303 | 0.0516 | 0.0515 | 0.0641 | 0.051 | 0.0454 | 0.047 | 0.0505 | 0.053 | 0.0468 | 0.044 | 0.0406 |  | 0.048 | 0.0398 | 0.0413 | 0.0434 | 0.0211
9 | V165T | 0.0444 | 0.0623 |  | 0.0514 | 0.0429 | 0.0585 | 0.0418 |  |  | 0.0549 | 0.0585 | 0.0552 | 0.0761 | 0.0521 | 0.0443 |  | 0.0406 |  | 
10 | Q151E | 0.0433 | 0.0501 | 0.0677 | 0.0667 | 0.0674 | 0.0514 | 0.0605 | 0.0688 |  | 0.0748 | 0.0637 | 0.0647 | 0.0628 |  | 0.0631 | 0.0403 | 0.0628 |  | 0.0568
11 | Q151M | 0.06 |  | 0.0624 | 0.09 | 0.0786 |  | 0.0631 | 0.0591 | 0.0502 | 0.0604 | 0.0633 |  |  |  |  | 0.0539 |  |  | 
12 | S130Y | 0.069 | 0.0645 | 0.0671 | 0.0643 | 0.07 | 0.0696 | 0.0528 |  |  | 0.0645 | 0.0625 | 0.0562 | 0.0659 |  | 0.0608 | 0.0218 | 0.062 | 0.056 | 
13 | F180N | 0.0427 | 0.0616 | 0.0511 |  | 0.0588 | 0.0489 | 0.0487 | 0.0536 |  |  | 0.0528 | 0.0464 |  | 0.0411 | 0.0592 |  | 0.0458 |  | 
